Experiment [1] has as its target Catechol O-methyltransferase (Homo sapiens) (UniProt P21964). In words: Confirmatory Screen for Target Class Profiling of Small Molecule Inhibitors of Methyltransferases (AID 1745852).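 Further: inhibitor potency for blocking SAH production.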 The settings on record: MTase-Glo luminescence, SAH detection, recombinant enzyme; measured here: COMT inhibition potency.
Experiment [2] concerns the target Histamine N-methyltransferase (Homo sapiens) (UniProt P50135). The experiment is described as above. As to conditions: MTase-Glo luminescence, SAH detection, recombinant enzyme; measured here: HNMT inhibition potency.
Experiment [3] deals with Nicotinamide N-methyltransferase (Homo sapiens) (UniProt P40261). The description is as above. The settings on record: MTase-Glo luminescence, SAH detection, recombinant enzyme; measured here: NNMT inhibition potency.
Experiment [4] deals with Phenylethanolamine N-methyltransferase (Homo sapiens) (UniProt P11086). The experiment is described as above. The settings on record: MTase-Glo luminescence, SAH detection, recombinant enzyme; measured here: PNMT inhibition potency.
Experiment [5] can be described thus: qHTS for identification of novel therapeutic agents for treatment of microphthalmiaassociated transcription factor (MiT) renal cell carcinoma (RCC) (AID 1963991). The settings on record: CellTiter-Glo, 48 h; for z-score: stronger effect = lower value. The method in brief: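 Three TFE3-fusion RCC lines (UOK109, UOK124, UOK145), 500 cells/well in complete medium, were treated with MIPE 4.0 compounds for 48 hours at 37 C. Viability was by CellTiter-Glo luminescence, normalized to DMSO (100%) and empty wells (0%); curves fitted over 11 concentrations.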
Background: qHTS replaces the single test concentration by a dilution series.

A short description of experiment [6]: qHTS drug screen for cell cycle checkpoint inhibitors in PARPi-resistant BRCA-mutant ovarian cancer cell lines. (AID 1963452). As to conditions: PEO1/OlaR viability, CellTiter-Glo luminescence, 96 h. In outline:
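PEO1, PEO4 and PEO1/OlaR ovarian cancer cells, 600 per well, exposed 96 h at 37C to a dilution series. Viability read by CellTiter-Glo luminescence, normalized to DMSO and empty wells; activity summarized as Z-AUC.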

Experiment [7] can be described thus: qHTS Assay for Modulators of Human Peripheral Myelin Protein 22 (PMP22) Expression/Activity (AID 1967). As to conditions: Cell-based PMP22 reporter, dual-color luciferase ratio; measured here: green reporter channel AC50; mouse Pmp22 promoter in mouse Schwann cells. The method in brief:
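MSC80 mouse Schwann cells stably carrying Pmp22 promoter–green click beetle luciferase plus EF-alpha–red luciferase control were dosed for 24h at 37 °C. Dual-colour luminescence was filter-overlap corrected; %Activity came from green/red ratio versus untreated cells.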

[8] abbreviates: TFE3-RCC UOK109 viability, measured here: UOK109 Z-AUC.
Setting [9] is: TFE3-RCC viability, measured here: UOK124 Z-AUC.
Setting [10] is: TFE3-RCC viability, measured here: UOK124 cell viability.
[11] abbreviates: TFE3-RCC viability, measured here: UOK145 Z-AUC.
Setting [12] is: TFE3-RCC viability, measured here: UOK145 cell viability.
Setting [13] is: measured here: PEO1 parental viability.

Values joined by “and” are separate entries in the source; they are usually repeats but may differ in a detail not shown here. Equal entries are not always repeated. Some of the results follow. Shown are side measurements of this screen, not its main read-out; they come without a call. For part of these data: Compounds called inactive in the main read-out are mostly missing here. Words in brackets tell the shape of the fitted curve; partial curves, single points and poor fits give uncertain potencies.

For orientation: IC50 means the concentration at which inhibition is half-maximal. As usually defined, the AC50 is the concentration giving half of the maximal activity seen.
Tags describe the fitted curve by direction and shape.

Sequence of UniProt P40261 (P40261 whole entry, looked up): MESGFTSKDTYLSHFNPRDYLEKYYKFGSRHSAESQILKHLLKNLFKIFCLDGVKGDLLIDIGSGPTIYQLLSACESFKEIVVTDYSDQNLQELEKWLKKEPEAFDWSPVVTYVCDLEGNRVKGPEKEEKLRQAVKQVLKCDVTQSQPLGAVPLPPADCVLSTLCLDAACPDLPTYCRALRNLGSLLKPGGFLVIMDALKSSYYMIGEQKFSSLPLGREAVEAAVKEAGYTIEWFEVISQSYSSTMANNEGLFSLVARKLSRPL
Sequence of UniProt P21964 (P21964 whole entry, looked up): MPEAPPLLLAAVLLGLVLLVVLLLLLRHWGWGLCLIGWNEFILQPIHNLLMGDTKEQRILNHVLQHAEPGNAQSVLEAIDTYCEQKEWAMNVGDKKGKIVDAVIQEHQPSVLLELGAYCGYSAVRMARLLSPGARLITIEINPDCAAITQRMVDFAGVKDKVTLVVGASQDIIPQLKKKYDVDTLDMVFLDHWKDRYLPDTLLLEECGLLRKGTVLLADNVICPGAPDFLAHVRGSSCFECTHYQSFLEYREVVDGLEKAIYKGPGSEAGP
Sequence of UniProt P11086 (P11086 whole entry, looked up, the tested form may be a part): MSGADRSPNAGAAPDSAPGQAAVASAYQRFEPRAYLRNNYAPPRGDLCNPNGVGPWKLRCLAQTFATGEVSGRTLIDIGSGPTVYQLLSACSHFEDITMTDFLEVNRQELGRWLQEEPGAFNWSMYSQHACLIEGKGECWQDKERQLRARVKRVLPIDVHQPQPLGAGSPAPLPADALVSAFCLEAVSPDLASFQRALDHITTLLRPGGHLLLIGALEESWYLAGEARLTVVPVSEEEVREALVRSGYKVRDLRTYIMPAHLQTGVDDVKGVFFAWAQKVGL
Sequence of UniProt P50135 (P50135 whole entry, looked up): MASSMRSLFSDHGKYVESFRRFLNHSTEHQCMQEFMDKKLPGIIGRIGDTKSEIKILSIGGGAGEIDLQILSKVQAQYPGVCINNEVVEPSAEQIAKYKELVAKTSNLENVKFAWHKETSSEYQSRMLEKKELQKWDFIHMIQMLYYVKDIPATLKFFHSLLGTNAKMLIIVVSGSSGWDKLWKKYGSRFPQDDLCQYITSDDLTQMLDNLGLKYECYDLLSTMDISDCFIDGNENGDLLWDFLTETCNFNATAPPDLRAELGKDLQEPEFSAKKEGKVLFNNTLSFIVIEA

Regarding `O=C(Nc1cc2cc[nH]c2cn1)c1ccccc1`, the IC50 in experiment [1] is 19.2 µM [falling, partial curve]; in experiment [2] it was 19.2 µM [falling, partial curve]; in experiment [3], 17.1 µM [falling, partial curve]; in experiment [4], 19.2 µM [falling, partial curve]. Further, the z-score was -0.197 in experiment [5] (setting [8]), -0.235 in experiment [5] (setting [9]) and 0.367 in experiment [5] (setting [11]). Also, the AC50 in experiment [5] (setting [10]) was 16.6 µM [falling, partial curve]; in experiment [5] (setting [12]), 16.6 µM [falling, partial curve].
Regarding `Nc1[nH]nc2nnc(-c3c(-c4ccccc4)nn4ccccc34)cc12`, the IC50 in experiment [1] was 17.1 µM [falling, partial curve]; in experiment [2], 15.2 µM [falling, partial curve]; in experiment [3], 21.5 µM [falling, partial curve]; in experiment [4], 19.2 µM [falling, partial curve]. In addition, the z-score is -0.48 in experiment [5] (setting [8]), 0.525 in experiment [5] (setting [9]) and -0.678 in experiment [5] (setting [11]). In addition, the AC50 in experiment [5] (setting [10]) was 14.8 µM [falling, partial curve]; in experiment [5] (setting [12]), 16.6 µM [falling, partial curve].
Consider `Cn1c(=O)n(C)c2cc(S(=O)(=O)Nc3ccc(-c4nnc(-c5ccccc5)o4)c(Cl)c3)ccc21`, for which the IC50 was 24.1 µM [falling, partial curve, poor fit] in experiment [1] and 24.1 µM [falling, partial curve, poor fit] in experiment [3].
For `CNC(=O)CN1CCC(Oc2cc3c(Nc4cccc(Cl)c4F)ncnc3cc2OC)CC1`, the IC50 in experiment [1] is 24.1 µM [falling, single point]; in experiment [2] it was 30.4 µM [falling, single point]; in experiment [4] it was 24.1 µM [falling, partial curve]. Further, the AC50 was 11 µM [falling, partial curve] in experiment [6] (setting [13]); 1.95 µM [falling, partial curve, poor fit] in experiment [6] (measured here: PEO4 viability); 18.7 µM [falling, partial curve] in experiment [5] (setting [10]); 0.0209 µM [falling, full curve] in experiment [5] (setting [12]).
Consider `CC(Oc1cc(-n2cnc3ccc(CN4CCN(C)CC4)cc32)sc1C(N)=O)c1ccccc1C(F)(F)F` (centres undefined), for which the IC50 in experiment [1] is 21.5 µM [falling, partial curve]; in experiment [2] it was 24.1 µM [falling, partial curve]; in experiment [4] it was 21.5 µM [falling, partial curve].
Regarding `Cc1ccc2c(c1)c(=O)[nH]c1c(C(=O)NCc3ccc4c(c3)OCO4)sc(=S)n12`, the IC50 in experiment [1] was 21.5 µM [falling, partial curve]; in experiment [3], 8.57 µM [falling, full curve]; in experiment [4], 19.2 µM [falling, partial curve].
Consider `O=C(Nc1ccccc1-c1cn2c(CN3CCNCC3)csc2n1)c1cnc2ccccc2n1`, for which the IC50 in experiment [1] is 7.64 µM [falling, full curve]; in experiment [2] it was 9.61 µM [falling, full curve]; in experiment [3], 30.6 µM [falling, partial curve]; in experiment [4], 8.57 µM [falling, full curve]. In addition, the AC50 was 15.5 µM [falling, single point] in experiment [6] (setting [13]); 19.5 µM [falling, partial curve] in experiment [6] (measured here: PEO4 viability); 16.6 µM [falling, partial curve] in experiment [5] (setting [10]); 29.6 µM [falling, single point] in experiment [5] (setting [12]). For the same compound, the z-score was -0.586 in experiment [5] (setting [8]), -0.419 in experiment [5] (setting [9]) and -0.522 in experiment [5] (setting [11]).
Regarding `C[C@@H](Oc1cc(-c2cnn(C3CCNCC3)c2)cnc1N)c1c(Cl)ccc(F)c1Cl`, the IC50 was 21.5 µM [falling, partial curve] and 24.1 µM [falling, partial curve] in experiment [1]; 21.5 µM [falling, partial curve] in experiment [2]; 24.1 µM [falling, partial curve] and 21.5 µM [falling, partial curve] in experiment [3]; 24.1 µM [falling, partial curve] in experiment [4]. Also, the AC50 in experiment [6] (setting [13]) was 17.4 µM [falling, single point]; in experiment [6] (measured here: PEO4 viability) it was 8.71 µM [falling, partial curve]; in experiment [5] (setting [10]) it was 18.7 µM [falling, partial curve]; in experiment [5] (setting [12]) it was 23.5 µM [falling, partial curve]. Also, the z-score is -0.0469 in experiment [5] (setting [8]), -0.357 in experiment [5] (setting [9]) and 0.302 in experiment [5] (setting [11]).
On to `CC(C)c1nccn1CCCNc1nc(-c2ccncc2)nc2c1cnn2C`, for which the IC50 in experiment [1] is 24.1 µM [falling, partial curve, poor fit]; in experiment [2], 13.6 µM [falling, partial curve]; in experiment [4], 21.5 µM [falling, partial curve].
With `CC(C)c1c2cc(-c3ccnc(NC4CCC(NC5CCOCC5)CC4)n3)ccc2nn1C` (centres undefined), the IC50 was 30.4 µM [falling, partial curve, poor fit] in experiment [1]; 42.9 µM [falling, single point] in experiment [2]; 30.4 µM [falling, partial curve, poor fit] in experiment [4]. The AC50 in experiment [6] (setting [13]) was 0.219 µM [falling, full curve]; in experiment [6] (measured here: PEO4 viability), 0.174 µM [falling, full curve].
With `Nc1ccc(-c2cnc(N)c(-c3ccc(Cl)cc3)c2)cn1`, the IC50 is 19.2 µM [falling, partial curve] in experiment [1] and 24.1 µM [falling, partial curve] in experiment [3].
Regarding `COc1ccc(-c2[nH]nc3ncc(C(=O)N4CCC(c5ccccc5)CC4)nc23)c(C)c1`, the IC50 in experiment [1] was 22.1 µM [falling, partial curve]; in experiment [2], 22.1 µM [falling, partial curve]; in experiment [4], 17.5 µM [falling, partial curve].
`O=C(O)Cc1ccc(O)c(O)c1`: in experiment [7], the AC50 is 30.1 µM [falling, full curve, poor fit].
